Our source for the ETS1 binding intensity values is the supplement of paper PMC10681739.

± gives the standard deviation of the averaged measurements. The full ranking holds about 4,100 sequences; the median of “arbitrary fluorescence units” is about 780, and the highest 2% start at about 22,000. Some of the results follow.

For this assay, the target named is T1, ETS1 (UniProt P14921).
T1 sequence: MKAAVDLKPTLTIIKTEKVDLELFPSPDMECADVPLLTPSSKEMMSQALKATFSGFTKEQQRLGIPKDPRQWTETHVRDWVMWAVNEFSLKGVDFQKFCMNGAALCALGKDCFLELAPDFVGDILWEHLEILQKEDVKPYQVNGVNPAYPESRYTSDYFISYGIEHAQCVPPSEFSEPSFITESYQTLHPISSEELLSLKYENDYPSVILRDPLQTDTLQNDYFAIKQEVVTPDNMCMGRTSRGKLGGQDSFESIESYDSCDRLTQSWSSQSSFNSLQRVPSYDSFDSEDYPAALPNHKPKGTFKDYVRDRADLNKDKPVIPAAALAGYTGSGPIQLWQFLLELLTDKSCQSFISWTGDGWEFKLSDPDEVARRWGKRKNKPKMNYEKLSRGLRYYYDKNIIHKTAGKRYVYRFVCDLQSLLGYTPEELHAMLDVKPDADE
Description: ETS1 binding intensity (PBM fluorescence), ETS1 alone (arbitrary fluorescence units); higher = stronger binding. The settings on record: ETS1 concentration 1 nM; RUNX1 concentration 0 nM. The gist of the method:
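Double-stranded Agilent 4 × 180k arrays held 36-bp genomic probes whose RUNX1 partner site was mutated, and these were incubated with 1 nM full-length recombinant human ETS1 in the absence of RUNX1 under standard PBM protocols. Bound protein was labelled with anti-ETS1 antibody (Cell Signaling Technology 14069) plus an Alexa488-conjugated secondary and read on a GenePix 4400A, with four spots printed per sequence. Binding level is reported as raw spot fluorescence intensity summarised over replicate spots.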
For GGGGCGATTACAGAACGGGTAACTCAGGATGATTCA, the ETS1 binding intensity amounted to 541. With ACTTTCGCGACGCAGGAAGCGCCCACGAAGGGAGGA the figure was 1080; with GCGTGGGGCCGAAGAGCGAGTCGGGAAACGATTTTA, 408; with GAAGGAAAGTGCTTTTCATAGGAAGGGAAGGGCGAA, 350. For the sequence GCGCTCCGGGGATTAGGAGGGCGCTTCCGGTGGCGG, the ETS1 binding intensity was 7160. With TACAGTCTCTGTGATTTACTGAGAGGAAGTGGTTCT the figure was 449. The sequence GTTTGAAGGGAAGTGGGTGTTGACCTTCGGGCAACT had an ETS1 binding intensity of 832.

Turning to CGGCAGTAGGTTGGAGGTGTGGCGGAAATGGTTGGG, the ETS1 binding intensity is 590. For the sequence TCCCGTTCCAGAGCGGAGCCGGATGTTTGCCGAGCC, the ETS1 binding intensity came out at 1700. With CTGTCCAGCCCAGAGAGGCCCCGGAAAGCCAGTGCC the figure was 354; with GAAACTTAGTCTCTGGGGAGAAGGATGTATCTTTGC, 343; with CATGAATCCCCTCACACAACAGGAAGGGGGTGTGGC, 696. With CTCCTGCTCACAGAAGCTCACTGTTTCCTGTCTAGC the figure was 2690; with AGACGTGCTTACAAAGGTCCCAAGTTCCGGCAGTAA, 542. With GAAGAGAAAGGAAACGGCTCGCGATTTCTGGGGTTC, the ETS1 binding intensity was 703. With TGTCCGGGCAGGAAGGGGTGCTCTCTGGGCTTGGAG the figure was 940; with GTCCCACCTCAGGCCTCCAGCCACATCCTGGGCCTC, 631; with GATGGTGCTTTTGGCAGAGGCCACATCCTGTCTGTT, 3240. With GTGATGGAGGTTCCCAGATCATTTCCTGCTCTTAGC the figure was 2600. GAGGGAAGTGAATCAGGCGCCGGGTAGTAGGTTGCT showed an ETS1 binding intensity of 374. CGGAGAGCTCGCGGCAATTCCGTTTCCCCGCCCTTT: the ETS1 binding intensity worked out at 404.

Turning to GTCGTCCCGGAAACCGGGATGCCGTTATCAGAGCGA, the ETS1 binding intensity was 2750. With CTTCTACTTCCTGCCCCGCCCCCAGCTGTGCTCACA, the ETS1 binding intensity came to 17900. With ACGGACAGAATTTCCTCCCCCGTCACCAGAGCGACC the figure was 1470; with TTGGTCTTGGGGTTTTGCAAGGAAGGGGTGATATAT, 517; with CGGCCGGACAGCGGCTCCATCCGGGGAACCCGTAGC, 843. GCTCGCGCTTCCTGGGAGCCTTTGATGTGAGTTCTT gave an ETS1 binding intensity of 2740. Regarding CTTCGGCCTTCCGTGATGGAATCCACCTCCTCTACA, the ETS1 binding intensity is 655.

CATGTCGTTATCTCATCGTTTTAAAGGATGTGGGGA displayed an ETS1 binding intensity of 481. With TTGGGTTCCTGCCAACGCTCTCCAGCCACTGCGTAA the figure was 762. With CTCTCACTTCCCGTGTGAGAAAAATCACAGAAAAGC the figure was 8110.

Regarding CCCAGAGATGAGGTGCATGTGGCAGGATGGCCCAGC, the ETS1 binding intensity worked out at 413. For the sequence ACCGTGCAGTCTGCAAGCAACCCTTCCGCTCCTTCA, the ETS1 binding intensity worked out at 606. On to GAAACAATTTCCTGTACCTCTGTCGTAAAAATGATA, for which the ETS1 binding intensity is 11000. Sequence CTGTTCTCATCCGCCCGCTCTGAGTCACCTACACCT returned an ETS1 binding intensity of 1420. CCACTTAGTGGCCAGGCCTCTGTCTCTTCCTCCCAT: the ETS1 binding intensity was 303. With GTGCATCCACCAGATGGTTCATTCTCAGGATATGGT the figure was 460; with TGTGAGCGCATCATGGGTAGACTCACTTCCTCTTGT, 630; with AGGTTCCGGCGAAAGTGACCGAAAGTAGCCGCCGGG, 4450. With AGACTAGAGGCGGCTGTGTGAGTCAGGAAGAGGGGC the figure was 317; with AGGCTGTAGGTGCCCTCGCCTTGCCCTCAGGAAGGG, 333; with CTGCACAAGGAAGCGCCTGTGTTGCTGTGAGCGGAG, 399. Sequence ACGCCTGGGGTCCCAGCTACTCAGGAAGCTGAGGTG had an ETS1 binding intensity of 358. With TACCCAGAAAGGAAGTGGAACCTGAGGTGAGGCCCC the figure was 2070; with CAGTCAATGTCGTAAGCTCATTTCCTGGAATGGCAA, 2440.

On to GAGAGCTGAGCGGAAGCTCAGCTGAGGGGCTGGTTG, for which the ETS1 binding intensity was 1550. GGCTTCCGCCGCCACCACTGCCCCTCACCCGCCACG had an ETS1 binding intensity of 5750. With AGCCACGGACTTCCGCCTACAGGTCGCCGCTGGTCC the figure was 9040 ± 2200.

AGCGGTATCCTGTTGTCTTACTCTGGTGACGTCATC had an ETS1 binding intensity of 8760. With TGACATCCTCTGAGGCAGCAAGCTTCGGTGAAGTCT the figure was 5050. With GCCCACTTCCTGCCGTAAGAGAAATCCACTAACACA the figure was 33800; with CCAGATTAGGAAACCCACCCGGCCTACAAAAAGCGG, 409; with AGGTCTCCGGAAGTGGGTCTTCGGCGCGCGGGATGC, 10200. With CAGAGTGGCTTGATGGTTTTGTGTTAGTCTTCCTGC the figure was 552; with CAGCGGAAGAAAGACCTGCCACCTCCACCCCAAAGA, 615; with TTGCGACTCGCGGCGACCCCTACGCGGAACTCTCTC, 356. GGCACTTCCGGTCCTGACCTGAAGCGCTCACCGTCA: the ETS1 binding intensity amounted to 55000. With AGCTTTCCGTCGCTCCGGCCCGCCTCGCCGTAAGGC the figure was 898; with TGCGCGGCCGAAGGGGCCAGACCCGGACGGCTCCAG, 317. With CTGCCGGAAGCTGCCCCTCCACCATTTTGGGGCCCG the figure was 3250; with CAGCACGCAGGAAGCACATGTCGTGGGGCTCTTCCA, 1210.

Sequence AGACAATTAGAAACTACACCCATATCCTAAACCCAC came in with an ETS1 binding intensity of 527. Sequence CCGCCTGCAGGGGCTGCCGGAGGCTTTTCCTGTTCC came in with an ETS1 binding intensity of 550. With TGGGTACTTCCTGTGACAAATCGAGTTGACAACATG the figure was 20900.

Regarding AGTTCCAGCAACCTCGGCTCCCTCTTCCGGTCCCGG, the ETS1 binding intensity was found to be 3090. With AAAGAGGAAATCACGTACCCGAAAATCACATGCACA the figure was 652; with GGAGATGTGAGCGCCGAGAAGTGGAGCAGGAAGCGA, 523; with TGTGAAATCGCAGGGGTTCAGGGAGGAAGTGTAAGC, 450.

CCTTTGTTGGGGTTTTTGCAGGAAGAGAAGGGTTAG displayed an ETS1 binding intensity of 530 ± 22. With AAAGGCACGGTGGCTAGCGCGGGCTTCCTGGAGGAC the figure was 393.

GAGACATGTGATTACATATTTAACGGCATCCTGCCA displayed an ETS1 binding intensity of 465.

Sequence GGAGCGGCGGAAGGGAGCTTGAGGCGGGAGGCTGAA yielded an ETS1 binding intensity of 609. With ACTTGGCAGTTCCGGGTCCGCGCCCCAGCGCGCCAC the figure was 2630; with GGTTCAGCCCCAGGAAGATCAGACAACAGAAGCGGA, 422. With AAGAGCATGCACCCTCAGAGACAGGAAGTGGCGGCT the figure was 3110.

On to GCCCTTCGGCGCCTGCGCGCTAAAAAGAGGAAGTTT, for which the ETS1 binding intensity amounted to 381. For the sequence GCACTACATTTCCCAGCTTTCCTCGCGGCAAAGAGA, the ETS1 binding intensity was 462. With GCTCTCGCGGAAGATGTCCCTTCGGTGCAGCTGCCG the figure was 400; with GTGCCGTGTGCCTCGGGTCGGTGCACCGTCCGGGAT, 323. As to AAGGCTGAGGGTAAGGCGACATTTCCTGCCCCCGGG, the ETS1 binding intensity turned out to be 2580.
